# Results as given in the supplement of paper PMC7826260.
# Some of the results follow. The data describe in vitro nicking of single-stranded DNA by Rep domains (1 h at 37 °C, 3 µM enzyme); the outer parts of the 90-letter strands are left off. Numbers give uncut DNA relative to the enzyme-free pool, as log2; strong cutting gives strongly negative numbers. There is no active / inactive call. Reads are scaled to the total; uncut strands gain when others are lost, and binding without cutting may add a little.
# Key:
# Experiment in all cases: uncleaved DNA left, log2 of reads against the no-enzyme library (log2 ratio); higher = less cleavage (more negative = more Rep cleavage of the k-mer); sequences stand for … in CTCGTCCG…ACCGGAGA
# [1] = test system: T1, Rep nickase domain of Muscovy duck circovirus
# T1 sequence (residues 1-111, tag not shown): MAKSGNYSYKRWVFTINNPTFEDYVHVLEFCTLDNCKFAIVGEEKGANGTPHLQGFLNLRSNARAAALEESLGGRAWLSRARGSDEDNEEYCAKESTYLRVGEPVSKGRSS
# Description: (§1)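 A pool of 90-nt single-stranded DNAs with seven random bases just before the constant AC of the nick site (name = the seven bases) was cut by 3 µM recombinant His6-SUMO-tagged Rep nickase domain (300 nM DNA, 50 mM HEPES pH 8.0, 50 mM NaCl, 1 mM MnCl2, 1 h, 37 °C, three replicates). Uncut DNA was amplified and sequenced.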
# [2] = test system: T2, Rep nickase domain of banana bunchy top virus
# T2 sequence (residues 1-94, tag not shown): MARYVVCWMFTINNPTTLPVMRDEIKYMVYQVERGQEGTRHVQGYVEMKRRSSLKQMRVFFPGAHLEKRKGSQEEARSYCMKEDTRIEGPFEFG
# Description: as §1
# [3] = test system: T3, Rep nickase domain of cabbage leaf curl virus
# T3 sequence (residues 1-116, tag not shown): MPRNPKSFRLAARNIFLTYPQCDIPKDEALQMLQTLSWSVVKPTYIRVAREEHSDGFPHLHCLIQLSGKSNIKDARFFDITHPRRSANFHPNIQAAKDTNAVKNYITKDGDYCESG
# Description: as §1
# [4] = test system: T4, Rep nickase domain of chickpea chlorotic dwarf virus
# T4 sequence (residues 1-124, tag not shown): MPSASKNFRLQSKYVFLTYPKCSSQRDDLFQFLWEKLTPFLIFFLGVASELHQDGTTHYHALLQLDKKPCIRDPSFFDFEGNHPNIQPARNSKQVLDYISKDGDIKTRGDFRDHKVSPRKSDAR
# Description: as §1
# [5] = test system: T5, Rep nickase domain of faba bean necrotic yellows virus
# T5 sequence (residues 1-98, tag not shown): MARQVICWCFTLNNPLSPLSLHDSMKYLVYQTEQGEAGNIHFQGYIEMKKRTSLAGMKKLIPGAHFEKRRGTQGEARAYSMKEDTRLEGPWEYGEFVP
# Description: as §1
# [6] = test system: T6, Rep nickase domain of maize striate mosaic virus
# T6 sequence (residues 1-117, tag not shown): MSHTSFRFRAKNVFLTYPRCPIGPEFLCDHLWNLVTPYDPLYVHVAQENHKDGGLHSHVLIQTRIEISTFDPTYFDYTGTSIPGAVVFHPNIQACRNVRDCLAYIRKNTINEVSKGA
# Description: as §1
# [7] = test system: T7, Rep nickase domain of porcine circovirus 2
# T7 sequence (residues 2-116, tag not shown): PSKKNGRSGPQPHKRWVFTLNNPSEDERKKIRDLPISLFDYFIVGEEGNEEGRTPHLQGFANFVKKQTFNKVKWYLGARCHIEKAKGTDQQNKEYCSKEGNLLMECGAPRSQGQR
# Description: as §1
# [8] = test system: T8, Rep nickase domain of tomato golden mosaic virus
# T8 sequence (residues 1-124, tag not shown): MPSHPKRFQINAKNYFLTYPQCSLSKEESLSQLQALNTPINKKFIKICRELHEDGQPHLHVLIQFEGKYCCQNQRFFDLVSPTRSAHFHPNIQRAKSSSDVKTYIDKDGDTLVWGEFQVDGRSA
# Description: as §1
# [9] = test system: T9, Rep nickase domain of tomato yellow leaf curl virus
# T9 sequence (residues 1-136, tag not shown): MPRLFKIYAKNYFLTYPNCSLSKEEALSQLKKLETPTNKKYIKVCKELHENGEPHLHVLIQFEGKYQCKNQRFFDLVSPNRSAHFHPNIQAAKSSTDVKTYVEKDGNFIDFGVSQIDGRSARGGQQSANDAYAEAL
# Description: as §1
# [10] = test system: T10, Rep nickase domain of wheat dwarf virus
# T10 sequence (residues 1-137, tag not shown): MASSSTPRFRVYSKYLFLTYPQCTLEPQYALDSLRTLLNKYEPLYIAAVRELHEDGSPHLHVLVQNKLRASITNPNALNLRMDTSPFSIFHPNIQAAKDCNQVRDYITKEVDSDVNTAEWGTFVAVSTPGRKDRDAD
# Description: as §1
Sequence,uncleaved DNA left (log2) [1],uncleaved DNA left (log2) [2],uncleaved DNA left (log2) [3],uncleaved DNA left (log2) [4],uncleaved DNA left (log2) [5],uncleaved DNA left (log2) [6],uncleaved DNA left (log2) [7],uncleaved DNA left (log2) [8],uncleaved DNA left (log2) [9],uncleaved DNA left (log2) [10]
TAAGTCT,0.0143,-0.101,-3.57,-3.16,-0.0292,-2.01,-0.559,-2.37,-0.0149,-3.45
ATTTGGC,0.000739,-0.138,-0.551,-0.595,-0.148,-1.23,0.113,-0.12,-0.0467,-0.11
ACACATC,0.0075,-0.0239,-0.34,-0.351,0.0442,-0.927,0.037,0.0522,-0.0263,0.0123
TGCTGTT,-2.47,-0.206,-0.36,-1.25,-0.0285,0.457,-3.03,-0.062,-0.0265,-0.295
CCAAAAT,-0.0369,0.0445,-0.0662,-0.619,-0.0481,-0.574,-0.0296,0.131,-0.0536,0.0772
TACTGGT,-2.79,-0.582,-1.23,-1.57,0.0387,0.889,-3.39,-0.0607,0.045,-0.151
ACAATCG,0.0747,0.0442,-0.478,0.87,0.128,-0.124,0.243,-0.0075,0.0975,0.0411
AACTCGA,0.0551,-0.0355,-0.363,-0.863,0.0309,-1.1,-0.136,-0.0442,0.075,-0.144
GGGTGTA,0.145,0.0983,0.809,1.75,0.00743,2.19,0.0493,0.0803,0.123,0.154
AGCCTAA,-0.0563,-0.0142,0.082,0.35,-0.106,0.338,-0.26,0.0523,0.101,0.0979
GGTTAAC,0.0583,-0.00377,0.392,0.833,-0.0442,1.78,0.182,0.0311,0.057,0.0896
TTATTGG,0.046,-0.112,-0.323,-0.401,0.0683,-0.831,0.0794,-0.0712,-0.106,-0.0492
TGAAAAA,0.0198,0.199,0.222,0.142,-0.0105,-0.238,0.191,0.0857,0.0815,0.162
GAACTTG,0.0639,-0.0492,-0.126,-0.716,-0.0764,-0.267,-0.00228,0.0184,-0.0573,0.0159
GTGTTGG,-0.0472,0.0443,0.0629,0.189,0.0127,-0.2,0.0675,0.0148,0.0625,-0.0144
